The record followed here is the RNAGym collection of RNA variant scans (doi:10.1093/nar/gkz1192).

B1: CPEB3 Ribozyme (parent)
chain: UAACAGGGGGCCACAGCAGAAGCGUUCACGUCGCAGCCCCUGUCAGAUUCUGGUGAAUCUGCGAAUUCUGCUGUAUAUCUC

The source gives no read counts; variants with many changes may rest on few reads.

In the data set the parent is B1. Kind of data set: self-cleavage, relative activity (ratio to wild type); higher = more cleavage; in vitro, sequencing. In outline: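 Libraries of CPEB3 self-cleaving ribozyme mutants came from rounds of error-prone PCR and carried barcodes, which DNA sequencing matched to variants. In vitro transcription used T7 RNA polymerase at 37°C for 5 hours, with a further 15 min in DNase I before EDTA stopped the reaction; the ribozymes cleaved during both steps. The RNA was reverse transcribed with template switching and sequenced on Illumina. Relative activity is the cleaved/total read fraction of a variant divided by that of the unmutated ribozyme, averaged over three batches with at least 5 reads.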
Take UAACAGGGGGCCGCAGCAGAAGCGUUCACGUCGCAGCCCCUGUCAGAUUCUGGUGAAUCUGCGUAUUCUGCCGUAUAUCUC: the self-cleavage was determined as 0.19.
With UAACAGGGGGCCGCAGCAGAAGCGUUCACGUCGCAGCCCCUGUCAGAUUCUGGUGAUUCUGCGAAUUCUGCUGUGUACCUC, the self-cleavage came to 0.3.
As to UAACAGGGGGCCGUAGCAGAAGCGUUCACGUCGCAGCUCCUGUCAGAUCCUGGUGAAUCUGCGAAUUCUGCUGUAUAUCUC, the self-cleavage was found to be 0.09.
Take UAACAGGGGGCCGCAGCAGAAGCGUUCACGUCGCAGGCCCUGUCAGAUUCUGGUGAAUCUGCGAAUUCUGCAGUAAAUCUC: the self-cleavage came to 0.14.
With UAACAGGGGGCCGCAGCAGAAGCGUUCACGUCGCAGCCCCUGUCAGAUUCUGGUGAAUCUGCGAGUUCUGCUGUAUUCCUC, the self-cleavage was determined as 0.27.
With UAACAGGGGGCCGCAGCAGAAGCGUUUACGUCGCAGCCCCUGUCAGAUUCUGGUGGAUCUGCGAAUUCUGCUGUAUAUCCC, the self-cleavage worked out at 0.55.
As for UAACAGGGGGCCGCAGCAGAAGUGCUCACGUCGCAGCCCCUGUCAGAUUCUGGUGAAUCUGCGAAUUCUGCUGUAUAUCUC, the self-cleavage is 0.24.
As to UAACAGGGGGCCGCAGCAGAAGCGUUCACGUCGCAGCCUCUGUCUGAUUCUGGUGAAUCUGCGAAUUCUGCUGUAUAUCUC, the self-cleavage was determined as 0.18.
In the case of UAACAGGGGGCCGCAGCAGAAGCGUUCACGUCGCAGCACCUGUCAGAUUAUGGUGAAUCUGCGAACCUUGCUGUAUAUCCC it was 0.2.
In the case of UAACAGGGGGCCGCAGCAGAAGCGUUCACGUCGCAGCCCCUGUCAGAUUCUGGUGUAUCUGCGAAUCCUGCUGUAUAUCUC it was 0.16; in that of UAACAGGGGGCCGCAGCAGAAGCGUUCACGUUGUAGCCCCUGUCAGAUUCUGGUGAAUCUGCGAAUACUGCUGUAUAUCUC, 0.34; in that of UAACAGGGGGCCGCAGCAGAAGCGUUCACGUCGCAGCCCCUGUCAGAUUCUGGUGAAUCUGCGAGUUCUGCCGUAUAUCUC, 0.1.
For UAACAGGGGGCCGCAGCAGAAGCGUUCACGUUGCAGCCCCUGUCAGAUUCUGGUGAAACUGCGAAUUCUGCUGUAUAUCUC, the self-cleavage was 0.06.
On to UAACAGGGGGCCGCAGCAGAAGCGUUCACGUCGGAGCCCCUGUCUGAUUCUGGUGAAUCUGCGAAUUCUGCCGUAUAUCUC, for which the self-cleavage was 0.12.
In the case of UAACAGGGGGCCGCAGCAGAAGUGUUCACGUCGCAGCCCUUGUAAGAUUGCGGUGAAUCUGCGAAUUCAGCUGUAUAUCUC, the self-cleavage was 0.16.
Consider UAACAGGGGGCCGCAGCAGAAGCGUUCACGUCGCAGCCCCUGUCAGAUUCUGGUGAGUCUGCGAAUUCCGCUGUGUAUCUC, for which the self-cleavage came out at 0.15.
Turning to UAACAGGGGGCCGCAGCAGAAGUGUUCACGUCGCAGCCCCUGUCAGAUUCUGGUGAAUCUGCGAUUUCUGCUGUAUAUCUC, the self-cleavage worked out at 0.19.
As for UAACAGGGGGCCGCAGCAGAAGCGUUCACGUCGCAGACCCCGUCAGAUUCAGGUGAAUCUGCGAAUUCUGCUGUAUAUCUC, the self-cleavage stood at 0.3.
As for UAACAGGGGGCCGUAGCAGAAGCGUUCGCGUCGCAGCCCCUGUCAGAUUCUGGUGAAUCUGCGAAUUCUGCCGUAUAUCUC, the self-cleavage is 0.3.
For the variant UAACAGGGGGCCGCAGCAGAAGCGUUCACGUCGCAGCCCCUGUCAGAUUCUGGUGAAUCUGCGUAUUCUGCUGUAUCUCUC, the self-cleavage amounted to 0.23.
Consider UAACAGGGGGCCGCAGCAGAAGCGUUCACGUCGCAGCCCCUGUCAGAUUCUGGUGAAUCUGCGGAUGCUGCUGUAUAUCUC, for which the self-cleavage amounted to 0.15.
As for UAACAGGGGGCCGCAGCAGAAGCGUUAACGUCGCAGCCCCUGUCAGAUUCUGGUGAAUCUGCGAAUUCUGCUGUAUAACUC, the figure is 0.3.
In the case of UAACAGGGGGCCGCAGCAGAAGCGUUCACGUUGCAGCCCCUGUCAGAUUCUGGCGAAUCUGCGAAUUCUGCUGUAUAUCUC, the self-cleavage amounted to 0.08.
As to UAACAGGGGGCCGCAGCAGAAGCGUUCACGUCGCAGCUCCUGUCAGAUUCCGGAGAAUCUGCGUAGUCUGCAGUAUAUCUC, the self-cleavage is 0.18.
As for UAACAGGGGGCCGCAGUAGAAGCGUUCACGUCACGGCCCCUGUCAGGUUCUGGUGAAUCUGCGAAUUCUGCUGUAUAUCUC, the figure is 0.06; as for UAACAGGGGGCCGCAGCAGAAGCGUUCACGUCGCAGACCCUGUCAGAUUCUGGUGGAUCUGCGAAUUCUGCUGUAUAUCUC, 0.17.
Turning to UAACAGGGGGCCGCAGCAGAAGUGUUCACGUCGCAGCCCCUGUCAGAUUCUGGUGAAUCUGCGAAUUCUGCUGUAUACCUC, the self-cleavage is 0.15.
As for UAACAGGGGGCCGCAGCAGAAGCGUUCACGUCGCAGGCCCUGACAGAUUCUGGUGUAUCUGCGAAUUCUGCAGUAAAUCUC, the figure is 0.11.
For UAACAGGGGGCCGCAGCAGAAGGGUUCACGUCGCAGCCCCUGUCAGGUUCUGGUGAAUCCACGAAAUCUGCUGUAGAUCUC, the self-cleavage turned out to be 0.04.
As for UAACAGGGGGCCGCAGCAGAAGCGUUCACGUCGCAGGCCCCGUCAGAUUAUGGUGAAUCUGCGAAUUCUGCUGUAUAUCCC, the figure is 0.24.
In the case of UAACAGGGGGCCGAUGCAGAAGCGUUCACGUCGCAGCCCCUGCCGGAUUCUGGUGAAUCUGCGAAUUCUGCUGUAUAUCUC, the self-cleavage was determined as 0.14.
For UAACAGGGGGCCGUAGCAGAACCGUUCACGUCGCAGCCCCUGUCAGAUUCUGGUGAAUCUGCGAAUUCUGCUGUAUAUCUC, the self-cleavage was found to be 0.31.
Take UAACAGGGGGCCGCAGUAGGAGCGUCCACGUCGCGGCCCCUGUCAGAUUCUCGUGAAUCUGCGAAUUCUGCUGUAUAUCUC: the self-cleavage was 0.37.
As for UAACAGGGGGCCGCAGCAGAAGCGUUCACGUAGUAGCCCCUGUCUGAUUCUGGUGAAUCUGCGAAUUCUGCUGUAAAUCUC, the figure is 0.13.
